The values that follow come from PMC6736310, “Targeting oxidative pentose phosphate pathway prevents recurrence in mutant Kras colorectal carcinomas” (PLoS Biology, 2019).

The series deals with the molecule itself. Nature of the series: cross-linking; Flag-tagged TPI or K56A/K56E mutants expressed in HEK293T cells, treated with or without 0.025% glutaraldehyde; monomer and dimer by western blot. On the technique in general: A western blot detects proteins with antibodies after separation by electrophoresis.

One may read the stoichiometry N as a count of units in the complex or per binding partner.

B1: TPI K56E mutant, ectopically expressed with a Flag or an HA tag (enzyme)
chain: not shown
notes: triosephosphate isomerase with K56E (mimic of constitutive malonylation); no chain bears both tags; also called Flag-tagged K56E; HA-tagged K56E; source: transfected, in lysate: HK2-10-derived CDCP1+ cells; HEK293T cells
As to B1, the “stoichiometry N” value amounted to 2.
